# The whole screen tested about 310,000 compounds, of which about 14,000 (4.5%) showed an effect of 50% or more. The effect is printed as a negative number. The list shows a part of the results.
# Target: human ether-à-go-go-related gene (hERG) potassium channel (human, UniProt Q12809)
# Assay: primary screen, population patch clamp on CHO cells stably expressing hERG
# 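Further: peak tail current of the secondary pulse compared with the same well before compound.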
# Sequence of human ether-à-go-go-related gene (hERG) potassium channel (Q12809 whole entry, looked up): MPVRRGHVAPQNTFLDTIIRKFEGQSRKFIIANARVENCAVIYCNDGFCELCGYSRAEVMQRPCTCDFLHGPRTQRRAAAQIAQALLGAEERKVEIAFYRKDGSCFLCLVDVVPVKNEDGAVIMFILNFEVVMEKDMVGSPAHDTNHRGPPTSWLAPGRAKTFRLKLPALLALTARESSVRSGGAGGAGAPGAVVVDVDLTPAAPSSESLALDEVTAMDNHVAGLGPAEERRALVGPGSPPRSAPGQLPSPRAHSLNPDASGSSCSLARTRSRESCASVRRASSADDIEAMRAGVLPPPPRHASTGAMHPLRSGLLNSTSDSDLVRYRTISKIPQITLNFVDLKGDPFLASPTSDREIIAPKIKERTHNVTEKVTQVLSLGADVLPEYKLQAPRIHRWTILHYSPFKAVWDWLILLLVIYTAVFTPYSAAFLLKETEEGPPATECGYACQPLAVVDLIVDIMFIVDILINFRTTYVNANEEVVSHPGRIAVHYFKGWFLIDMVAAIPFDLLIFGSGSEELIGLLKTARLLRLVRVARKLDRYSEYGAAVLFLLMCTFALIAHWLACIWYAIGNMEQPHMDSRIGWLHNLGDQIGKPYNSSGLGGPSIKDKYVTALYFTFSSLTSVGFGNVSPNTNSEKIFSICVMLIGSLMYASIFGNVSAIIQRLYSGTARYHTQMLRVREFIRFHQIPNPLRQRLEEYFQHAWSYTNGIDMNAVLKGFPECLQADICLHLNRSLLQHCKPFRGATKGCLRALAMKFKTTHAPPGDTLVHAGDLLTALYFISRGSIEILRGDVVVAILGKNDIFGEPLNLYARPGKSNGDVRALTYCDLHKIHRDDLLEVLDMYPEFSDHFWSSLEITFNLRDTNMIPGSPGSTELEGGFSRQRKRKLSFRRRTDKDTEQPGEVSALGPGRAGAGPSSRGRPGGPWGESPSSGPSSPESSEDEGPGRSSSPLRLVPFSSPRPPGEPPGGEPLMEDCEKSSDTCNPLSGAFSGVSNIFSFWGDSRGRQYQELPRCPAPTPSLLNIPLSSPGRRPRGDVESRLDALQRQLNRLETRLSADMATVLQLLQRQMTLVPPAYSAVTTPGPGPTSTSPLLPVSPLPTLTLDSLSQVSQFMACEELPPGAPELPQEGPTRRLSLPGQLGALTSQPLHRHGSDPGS
row,SMILES,"hERG current change (%, negative = inhibition) at 10uM [%]"
1,O=C(CSc1ccc2nnc(CCNC(=O)c3ccccc3)n2n1)Nc1ccccc1,-10.9
2,COc1ccc(-c2ncnc(C(F)(F)F)c2-c2csc(C)n2)c(O)c1,-2.45
3,C[C@H]1CN=C(Nc2ccccc2)N1CCCC1CCCC1,-58.7
4,CCOc1cc(C(=O)OCC(=O)NC(C)c2ccccc2)ccc1OCC(=O)N1CCOCC1 (centres unmarked),2.42
5,COc1ccc(C2=Nc3cccc4cccc(c34)N2)cc1,9.66
6,O=C(Nc1ccnn1C1CCN(Cc2ccc3nonc3c2)CC1)c1cccc(F)c1,-37.4
7,CN(C(=O)c1ccc(NC(=O)Cc2ccc(NC(=O)C3CCCN(C(=O)CCc4ccccc4)C3)cc2)cc1)C1CC1 (centres unmarked),2.3
8,Cc1n[nH]c(=O)c2c(NC(=O)CSc3nnc(C4CC4)n3C)oc(C)c12,3.25
9,Cc1ccc(-c2nsc(SCC(=O)NCC3CCCO3)n2)cc1 (centres unmarked),-6.67
10,COC(=O)C(Cc1cccc(C)n1)(c1ccccc1)c1ccccc1,3.7
11,CCOC(=O)c1[nH]c2ccccc2c1NC(=O)c1ccc2c(c1)OCO2,-9.76
12,CN(C(=O)CSc1ncccc1C(=O)O)c1ccccc1,-3.26
13,COc1ccccc1NS(=O)(=O)c1cccc(C(=O)N/N=C/c2ccc3c(c2)OCCO3)c1,-16.3
14,CCc1nc2ccccc2n1CCc1ccccc1.Cl,-16.6
15,Cc1cccc(N2CCN(S(=O)(=O)c3cccc4nonc34)CC2)c1C,14.7
16,Cc1ccccc1NC(=O)OCc1cn(-c2ccc(Cl)cc2)nn1,-7.61
17,CCOC(=O)c1snc2c(=O)[nH]cnc12,6.6
18,COc1ccc(C2CC(c3ccc(Br)cc3)=NN2C(=O)CSC2=NN3CCCC(=O)N=C3S2)cc1 (centres unmarked),21.3
19,CCC(Cc1ccccc1)NC(=O)CN1C(=O)CSc2ncccc21 (centres unmarked),0.337
20,CC(=O)Nc1ccc(NC(=O)Cc2ccc(S(=O)(=O)N3CCCCC3)s2)cc1,-2.44
21,Cc1nnc(SCc2ccccc2Cl)n(N)c1=O,-9.65
22,COc1cccc2c1O/C(=N\O)C(C(=O)Nc1ccc(C)cc1)C2 (centres unmarked),1.46

row,SMILES,"hERG current change (%, negative = inhibition) at 10uM [%]"
1,Cc1ccc(C(=O)Nc2ccccc2C(=O)O)cc1S(=O)(=O)Nc1ccccc1,12.5
2,CCOc1ncccc1C(=O)Nc1nnc(C(CC)CC)s1,-29.8
3,CCOP(=O)(OCC)C(NC(=O)c1cccs1)c1ccccc1 (centres unmarked),23.5
4,Cc1nn(C)cc1NC(=O)Cn1nc(C(F)(F)F)cc1C1CC1,26.2
5,CC1CCC2C(C1)Nc1c(C(=O)O)cccc1C2(C)C (centres unmarked),49.3
6,Cc1nc2ccc(Br)cc2c2c1CC(CBr)O2 (centres unmarked),-26.8
7,COc1ccc(C(=O)c2c3ccc(C(F)(F)F)cc3[n+]([O-])n2CCCC(N)=O)cc1,-51.6
8,CCOc1ccccc1N1CCN(C(=O)c2cc(C)oc2C)CC1,5.3
9,COc1ccccc1CCC(=O)OCC(=O)NC1CCCCC1,14.9
10,Cc1cccc(NS(=O)(=O)c2cccc(C(=O)N3CC(C)OC(C)C3)c2)c1 (centres unmarked),3.98
11,Cc1ccc(NC(=O)c2cc(-c3ccc(C)o3)nc3ccccc23)cc1,4.86
12,CCOC(=O)c1ccc(NC(=O)CC2C(=O)N(c3cccc(OC)c3)C(=O)N2CCOC)cc1 (centres unmarked),-21.2
13,CC1CCN(C(=O)COC(=O)c2ccc(N3CCCC3=O)cc2)CC1,0.0308
14,O=C(/C=C/c1cccs1)NC1CCS(=O)(=O)C1 (centres unmarked),25.6
15,CCOc1ccc(-n2c(N)c(C(=O)NCc3ccco3)c3nc4ccccc4nc32)cc1,-4.43
16,COc1ccc(S(=O)(=O)N(CC(=O)N2CCN(C)CC2)c2ccc(C)cc2)cc1OC,-11
17,FC(F)(F)c1cccc(Nc2cc(-c3ccccc3)nc3ncnn23)c1,13.5
18,CCN1CCN(C(=O)c2nn(-c3ccc(C)cc3)c(=O)c3c2c2ccccc2n3C)CC1,7.15
19,Cc1ccsc1C(=O)OCC(=O)NCCCc1ccccc1,-20.8
20,NC1=NC(=Nc2ccc(Br)cc2)c2ccccc21,-6.61
21,N#CCCN(C(=O)c1ccco1)c1ccccc1,2.09
22,CC(=O)Nc1ccc(NC(=O)C2CCN(C(=O)c3ccc([N+](=O)[O-])cc3)CC2)cc1,-0.926

row,SMILES,"hERG current change (%, negative = inhibition) at 10uM [%]"
1,Cc1cccc(C)c1NC(=O)CN1CCN(CC(=O)c2cc(C)n(C3CC3)c2C)CC1,-12.4
2,Cc1c(N=NC2=C(O)CC(C)(C)CC2=O)cc2c(c1[N+](=O)[O-])C(C)(C)CC2(C)C,17
3,O=C1c2ccccc2S(=O)(=O)c2cc(C(=O)N3CCCC3)ccc21,-1.93
4,CCCCNc1nc2c(S(=O)(=O)c3ccccc3)nnn2c2ccccc12,14.3
5,Cl.Fc1ccc(CCNCc2ccccc2Cl)cc1,1.24
6,COc1cccc(CN(C)C(=O)C2CSC3(C)CCC(=O)N23)c1OC (centres unmarked),12.5
7,Oc1ccc(-[n+]2c(-c3ccccc3)cc(-c3ccccc3)cc2-c2ccccc2)cc1.[O-][Cl+3]([O-])([O-])[O-],-71.3
8,O=C(CNc1ccc(Br)cc1)c1ccccc1,10.2
9,O=Cc1cc(N=Nc2ccccc2Cl)ccc1O,16.3
10,Cc1cc(NC(=O)CCCC(=O)O)nc(C)n1,0.176
11,Cc1[nH]n(-c2ccccc2)c(=O)c1CCOC(=O)c1ccc(C(F)(F)F)cc1,11.6
12,CN(CC(=O)Nc1cccc(F)c1)C(=O)CCCN1C(=O)c2cccc3cccc(c23)C1=O,-38.6
13,COc1cc(/C=C\C(=O)NCc2ccc3[nH]c(C)cc3c2)cc(OC)c1OC,12
14,CN1CCN(CCC(=O)N2c3ccccc3Sc3ccc(Cl)cc32)CC1,-48.9
15,O=C(NNC(=O)C1CC(=O)N(Cc2ccccc2)C1)c1ccc(F)cc1 (centres unmarked),2.46
16,CCOC(=O)N1CN(C(=O)OCC)CN(C(=O)OCC)C1,17.6
17,O=S(=O)(Cc1ccccc1)NCC1CCCO1 (centres unmarked),4.08
18,CN1C(=O)CSC1=S,10.4
19,CN(CC(=O)Nc1ccccc1Cl)C(=O)COC(=O)/C=C/c1ccccc1,-15.7
20,CC1CN(C(=O)c2ccc(Cl)c(S(=O)(=O)NCc3ccco3)c2)CC(C)O1 (centres unmarked),-6.14
21,CCOC(=O)[C@@]1(C#N)[C@@H]2C=CC(C(N)=O)=CN2[C@@H](C(N)=O)[C@@H]1c1cccc(Cl)c1,-5.84
22,CN(Cc1ccccc1)C(=O)CSc1nc2c(c(C(F)(F)F)n1)CCc1ccccc1-2,14.8

row,SMILES,"hERG current change (%, negative = inhibition) at 10uM [%]"
1,CCCCN(Cc1cc2cccc(C)c2[nH]c1=O)S(C)(=O)=O,-2.84
2,Cc1ccc(C(=O)NCCN2CCCC2)cc1.Cl,-5.44
3,CC1(C)[N+]([O-])=C2C(=[N+]([O-])C1(C)C)c1ccccc1/C2=N\O,0.00468
4,CC1(C)Cc2nc3sc(C(=O)NCCCO)c(N)c3cc2CS1,18
5,CCc1ccc(-c2cc(C)no2)cc1S(=O)(=O)Nc1cccc(CN2CCCC2)c1,-30.4
6,O=C1Nc2ccccc2C(=O)N2[C@H](c3ccc(F)cc3)[C@@H]3C(=O)N(Cc4ccccc4)C(=O)[C@@H]3[C@H]12,-42.5
7,CSc1ccc(C2=CC(=O)C[C@H](c3ccc4c(c3)OCO4)C2)cc1,25.8
8,Cc1ccc2[nH]c3nc(SCCN4CCOCC4)nnc3c2c1,8.91
9,Cc1ccc(Sc2c(C)nn(C(=O)CNS(=O)(=O)c3ccc(F)cc3)c2C)cc1,-6.2
10,COc1cc(/C=C/C(=O)Nc2nnc(CC(C)C)s2)cc(OC)c1OC,-27.8
11,Cc1csc(Sc2ccc(C(=O)OCC(=O)Nc3ccc(F)cc3[N+](=O)[O-])cc2[N+](=O)[O-])n1,0.517
12,CN1CCc2c(sc(NC(=O)c3ccc(S(=O)(=O)N4CCCC4)cc3)c2C(N)=O)C1,10.3
13,Fc1cccc(Cl)c1CSc1ccc2nnc(-c3ccccn3)n2n1,-13.5
14,COc1cc(OC)cc(C(=O)NC(=S)N(Cc2ccccc2)C(C)C)c1,5.17
15,O=C(c1ccc(OC2CCN(CCO)CC2)cc1)N1CCCC1,18.1
16,CCN(CC)C(=O)Cn1cc(S(=O)(=O)CC(=O)NCc2ccc(C)cc2)c2ccccc21,-15.3
17,COc1cccc(NS(=O)(=O)c2cc3[nH]c(=O)c(=O)[nH]c3cc2C)c1,25.1
18,CCc1cc(=O)oc2cc(O[C@@H]3O[C@H](CO)[C@@H](O)[C@H](O)[C@H]3O)c(Cl)cc12,16.3
19,COC(=O)N1CCN(CCc2ccccc2)CC1,5.83
20,CC(CCc1ccccc1)OS(N)(=O)=O (centres unmarked),8.74

# From publication PMC4336329 (PLoS ONE, 2015)
